# According to paper PMC9911399, “Two distinct binding modes provide the RNA-binding protein RbFox with extraordinary sequence specificity”:
# Substitutions are numbered along the chain they refer to; changes in the protein carry UniProt numbers. This is one part of the list.
# T1: RBFOX1 RRM (Homo sapiens, UniProt Q9NWB1 109-208)
# T1 sequence: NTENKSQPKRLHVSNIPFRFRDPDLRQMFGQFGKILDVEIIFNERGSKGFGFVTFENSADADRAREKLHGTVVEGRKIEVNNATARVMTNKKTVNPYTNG
# B1: UGGAGGC (DNA:RNA)
# RNA: GGGAGACCGGAAUUCAGAUUGUCCUGGAGGCUUAAAUCCCGUCGUAGCCACCA
# DNA 1: CAATCTGAATTCCGGTCTCCC
# DNA 2: TGGTGGCTACGACGGGATT
# B2: GUCGUGG (DNA:RNA)
# RNA: B1 RNA with U25G, G26U, G27C, A28G, G29U, C31G
# DNA 1: CAATCTGAATTCCGGTCTCCC
# DNA 2: TGGTGGCTACGACGGGATT
# B3: UCACCCU (DNA:RNA)
# RNA: B1 RNA with G26C, G27A, A28C, G29C, G30C, C31U
# DNA 1: CAATCTGAATTCCGGTCTCCC
# DNA 2: TGGTGGCTACGACGGGATT
# B4: UGCGCGG (DNA:RNA)
# RNA: B1 RNA with G27C, A28G, G29C, C31G
# DNA 1: CAATCTGAATTCCGGTCTCCC
# DNA 2: TGGTGGCTACGACGGGATT
# B5: ACUUCUC (DNA:RNA)
# RNA: B1 RNA with U25A, G26C, G27U, A28U, G29C, G30U
# DNA 1: CAATCTGAATTCCGGTCTCCC
# DNA 2: TGGTGGCTACGACGGGATT
# B6: CCGGAGA (DNA:RNA)
# RNA: B1 RNA with U25C, G26C, A28G, G29A, C31A
# DNA 1: CAATCTGAATTCCGGTCTCCC
# DNA 2: TGGTGGCTACGACGGGATT
# B7: GGGGUGG (DNA:RNA)
# RNA: B1 RNA with U25G, A28G, G29U, C31G
# DNA 1: CAATCTGAATTCCGGTCTCCC
# DNA 2: TGGTGGCTACGACGGGATT
# B8: CAUCCAU (DNA:RNA)
# RNA: GGGAGACCGGAAUUCAGAUUGUCCCAUCCAUUUAAAUCCCGUCGUAGCCACCA
# DNA 1: CAATCTGAATTCCGGTCTCCC
# DNA 2: TGGTGGCTACGACGGGATT
# B9: GCACGGG (DNA:RNA)
# RNA: B1 RNA with U25G, G26C, G27A, A28C, C31G
# DNA 1: CAATCTGAATTCCGGTCTCCC
# DNA 2: TGGTGGCTACGACGGGATT
# Target: T1, RBFOX1 RRM
# Assay: EMSA; HiTS-Eq, 1 nM pool, 10 min; buffer printed only for the single-RNA assays: 10 mM Tris pH 7.5, 150 mM NaCl, 3.4 mM EDTA, 0.001% NP-40, 30 C
# Details: tags: His6 N-terminal (pET28a); label: 5' 32P
# Procedure, shortened: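 Relative association constants, normalised to the cognate motif, were derived by comparing read counts of each RNA species with those of the control reaction. The RNA sequenced was the free fraction, separated by 8% native PAGE after a 10 min equilibration in 50 µL of 1 nM 5′-radiolabelled RNA (7 randomized nucleotides) with increasing concentrations of purified wild-type or mutant RbFox RRM.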
row,Binder,binding signal
1,B1,0.0186 KA relative to UGCAUGU
2,B2,0.0185 KA relative to UGCAUGU
3,B3,0.0019 KA relative to UGCAUGU
4,B4,0.0258 KA relative to UGCAUGU
5,B5,0.00885 KA relative to UGCAUGU
6,B6,0.0106 KA relative to UGCAUGU
7,B7,0.0333 KA relative to UGCAUGU
8,B8,0.000182 KA relative to UGCAUGU
9,B9,0.0204 KA relative to UGCAUGU
